Data as given in the antibiotic and cytotoxicity screens of Wong et al. (2023).
Some of the results follow.

Test system: HSkMC (human skeletal muscle cells)
Test: cytotoxicity call (relative viability < 0.9)
Conditions: 10 µM

Row | SMILES | cytotoxicity call
1 | COCC(=O)N1C[C@@H](C)[C@H](OC)CN(C)C(=O)c2cc(NC(=O)c3cc(C)on3)ccc2OC[C@H]1C | inactive
2 | Cc1cn2nc([C@@H]3CCCCN3C(=O)c3cc(Cl)ccc3NS(C)(=O)=O)cc2nc1N1CC[C@H](N)C1 | inactive
3 | C[C@@H]1CN([C@@H](C)CO)C(=O)c2cc(C#Cc3ccccc3F)cnc2O[C@@H]1CN(C)C(=O)Cc1cccnc1 | inactive
4 | C[C@@H]1CN([C@@H](C)CO)C(=O)c2cc(NC(=O)Cc3ccccc3)ccc2O[C@@H](C)CCCCO[C@@H]1CN(C)C(=O)c1ccccc1 | inactive
5 | C[C@H](CO)N1C[C@H](C)[C@@H](CN(C)C(=O)CCN2CCCCC2)Oc2ncc(C#Cc3ccccc3)cc2C1=O | inactive
6 | Cn1cnc(S(=O)(=O)N2C[C@H](O)COC[C@H]3O[C@@H](CC(=O)NCc4ccc(F)cc4)CC[C@@H]32)c1 | inactive
7 | CCOC(=O)/C(=N/O)c1csc(N)n1 | inactive
8 | COc1ccc2c3c(n(c2c1)C)[C@@H](CO)N(C[C@]13CCN(CC1)C(=O)c1cccnc1)C(=O)c1cccnc1 | inactive
9 | CC(C)NC(=O)Nc1cccc2c1O[C@H](CN(C)C(=O)NC1CCCCC1)[C@@H](C)CN([C@@H](C)CO)C2=O | inactive
10 | CCc1nc2ccc(C(=O)N3CCN(S(=O)(=O)CC)CC3)cn2c1N(C)C(=O)c1cccc(OC)c1 | inactive
11 | COc1ccc(NC(=O)Nc2ccc3c(c2)CC(=O)N([C@H](C)CO)C[C@@H](C)[C@H](CN(C)CC2CCCCC2)O3)cc1 | inactive
12 | C[C@@H]1CN([C@@H](C)CO)C(=O)CCCn2nncc2CO[C@H]1CN(C)C(=O)Nc1ccc(N2CCN(C)CC2)cc1 | inactive
13 | C[C@@H]1CCCCO[C@@H](CN(C)Cc2ccccc2)[C@@H](C)CN([C@@H](C)CO)C(=O)c2cc(NC(=O)c3ccccc3)ccc2O1 | inactive
14 | CCCC(=O)Nc1ccc2c(c1)C(=O)N(C)[C@@H]1CC[C@H](CC(=O)NCCN3CCCCC3)O[C@@H]1CO2 | inactive
15 | Cn1nnnc1SCC(=O)NC(C)(C)C | inactive
16 | C[C@@H]1CN([C@H](C)CO)C(=O)c2cc(NS(=O)(=O)c3ccc(F)cc3)ccc2O[C@@H](C)CCCCO[C@@H]1CN(C)CC1CCCCC1 | inactive
17 | C[C@@H]1CN([C@H](C)CO)C(=O)Cc2cc(NC(=O)Nc3cccc4ccccc34)ccc2O[C@H]1CN(C)Cc1ccc(C(F)(F)F)cc1 | inactive
18 | C[C@@H]1CN([C@H](C)CO)C(=O)c2cc(NC(=O)C3CCCCC3)ccc2O[C@@H](C)CCCCO[C@@H]1CN(C)C(=O)Nc1ccc2c(c1)OCO2 | inactive
19 | C[C@@H]1CN([C@H](C)CO)C(=O)c2cccc(NC(=O)Nc3ccc(C(F)(F)F)cc3)c2O[C@@H]1CN(C)Cc1ccc(C(F)(F)F)cc1 | active
20 | COc1c(C)cnc2c1c(=O)n(CC(N)=O)c(=O)n2C | inactive
21 | COc1ccc(CN(C)C[C@@H]2OCCCC[C@H](C)Oc3ccc(NS(=O)(=O)c4cccs4)cc3C(=O)N([C@H](C)CO)C[C@@H]2C)cc1 | inactive
22 | C[C@@H]1CN([C@H](C)CO)C(=O)c2cc(NS(=O)(=O)c3cccs3)ccc2O[C@@H](C)CCCCO[C@H]1CN(C)Cc1ccc(C(F)(F)F)cc1 | inactive
23 | O=C(N/N=C/[C@@H](O)[C@H](O)[C@H](O)CO)c1ccccn1 | inactive
24 | C[C@H](CO)N1C[C@H](C)[C@@H](CN(C)C(=O)Nc2cccc3ccccc23)OCCCC[C@H](C)Oc2ccc(NC(=O)Nc3ccccc3)cc2C1=O | inactive
25 | C#CCN(C)CCCOc1ccc(Cl)cc1Cl.Cl | inactive
26 | C[C@@H]1CN([C@H](C)CO)S(=O)(=O)c2ccc(C#CC3(O)CCCC3)cc2O[C@@H]1CN(C)C(=O)c1cccnc1 | inactive
27 | C[C@@H]1CN([C@@H](C)CO)C(=O)Cc2cc(NC(=O)CCN3CCOCC3)ccc2O[C@@H]1CN(C)CC1CCCCC1 | inactive
28 | COC1=C2C[C@@H](C)C[C@H](OC)[C@H](O)[C@@H](C)/C=C(\C)[C@H](OC(N)=O)[C@@H](OC)/C=C\C=C(/C)C(=O)NC(=CC1=O)C2=O | inactive
29 | C[C@H](CO)N1C[C@H](C)[C@@H](CN(C)C(=O)Nc2cccc3ccccc23)Oc2ccc(NC(=O)C3CCCCC3)cc2C1=O | inactive
30 | C[C@H](CO)N1C[C@H](C)[C@@H](CN(C)Cc2ccc(Cl)c(Cl)c2)OCCCC[C@H](C)Oc2ccc(NC(=O)Cc3ccccc3)cc2C1=O | inactive
